Measured values: ChEMBL document CHEMBL4888484, “Replenishing the malaria drug discovery pipeline: Screening and hit evaluation of the MMV Hit Generation Library 1 (HGL1) against asexual blood stage Plasmodium falciparum ,using a nano luciferase reporter read-out” (2022)
The whole screen tested about 150,000 compounds, of which about 540 (0.36%) showed an effect of 50% or more. Some of the results follow.

test system: Plasmodium falciparum; test: Primary screen in NF54 nanoGlo assay, in single point, at 2uM, 72h; a lower Z score goes with more inhibition; format: functional, Erythrocyte; conditions: timepoint 72 hour

SMILES | % Inhibition | Z score
COc1cccc(CN2CCC(N3C[C@H](OC)[C@@H]3c3cccnc3)CC2)n1 | -8% | 0.99
COc1cc(CN2CC[C@H](c3cnn(C)c3)C2)cc(OC)c1OC | 1% | -0.11
CC(C)NC(=O)[C@@H]1CCC(=O)N1C1CCN(C(=O)c2cc(F)cc(F)c2)CC1 | 6% | -1.14
OC1CCN([C@H]2CCN(Cc3ccccc3OC(F)F)C[C@@H]2O)CC1 | -3% | 0.42
O=C(CNC[C@]1(c2ccc(F)cc2)CCOC1)Nc1cnccn1 | -14% | 1.27
C[C@H](c1nc(-c2ccon2)no1)C1CCC1 | 0% | 0.01
Cc1cc(C)cc(C(=O)N[C@H](c2ccccc2)c2nnc(N3CCCC3)o2)c1 | -5% | 0.53
Cc1noc(C)c1CN(C)C(=O)Nc1ccc(Cl)cc1Cl | -1% | 0.26
CCC1(CC)CN(c2nc(C)cnc2C)CCO1 | -5% | 0.83
Cc1nc(C(C)C)c(Cc2ccc(F)cc2)c(N2CCN(C(=O)c3cccs3)CC2)n1 | -4% | 0.67
O=C(Nn1c(C2CCCCC2)nc2ccccc2c1=O)c1cccc(Cl)c1 | -11% | 1.27
CCCN1C(=O)N[C@@H](Cc2ccc(O)cc2)C1=O | 0% | -0.05
Cc1nnsc1C(=O)Nc1cc2c(cc1Br)CCC2 | -5% | 0.53
c1ccc(C(NCc2nc(C3CC3)no2)c2ccccc2)cc1 | -12% | 1.28
CN1CCN(CCCC2CCCC2)C[C@@H]1CCO | -12% | 1.39
Nc1ccc2c(c1)N(C(=O)C1CCCC1)CC2 | -14% | 1.61
COCC(=O)Nc1cc(C2CC2)nn1-c1nc(C)cc(=O)[nH]1 | 4% | -0.78
CNc1cc(C)nc(-c2cccc(C(=O)NCCN3CCCCC3=O)c2)n1 | 8% | -1.3
Cc1ccc([C@H](CNC(=O)c2snnc2C)N2CCC(C)CC2)o1 | 0% | -0.06
C[C@@H](C(=O)N1CC(=O)Nc2ccccc21)N(C)CCc1nccs1 | -4% | 0.81
Cc1ccc(C)c(C(C)NC(=O)c2cc(C(=O)NC(C)c3cc(C)ccc3C)cc(C(=O)NC(C)c3cc(C)ccc3C)c2)c1 (configuration not stated) | 0% | 0.05
Cc1cccc([C@H]2CCCN(C(=O)c3ccsc3)C2)c1 | -5% | 0.94

SMILES | % Inhibition | Z score
CC1CC2CCCCC2N1C(=O)c1cc[nH]c(=O)c1 (configuration not stated) | -9% | 1.43
CC(C)N(C)C(=O)[C@H]1CC(=O)N(C(C)C)C1 | -5% | 0.63
COc1ccccc1-c1nc2ccc(C)cn2c1NC(=O)CCC1CCCC1 | -3% | 0.42
Cc1nc(NC(=O)c2cc(C3CC3)on2)sc1C(=O)N(C)C | -8% | 1.57
O=c1[nH]nc(CCNc2ccc(Cl)cn2)[nH]1 | 4% | -0.44
CN(C(=O)c1ccc(S(=O)(=O)NC2CC2)o1)C1CCCCC1 | 1% | -0.24
C[C@]1(CS(=O)(=O)NCCc2cnoc2)CC1(Cl)Cl | -6% | 0.86
O=C(Cc1cccs1)Nc1ccc(-c2nnc[nH]2)cc1 | 1% | -0.11
Cc1c(NC(=O)Nc2cnc3c(c2)CCCC3)cnn1C | 10% | -1.29
COc1ccc2nc(N3CC(C(=O)NCCc4cccs4)C3)sc2c1 | -3% | 0.42
Cc1ccc(Cl)cc1N1CCN(C(=O)c2cc3c(C)nc4ccccc4c3o2)CC1 | -7% | 1.02
Cc1ccc(CNC(=O)c2ccc3c(c2)CNCCO3)cc1 | 11% | -2
O=C(c1cc(-c2ccccc2Cl)nc2ccccc12)N1CCN(c2ncccn2)CC1 | -3% | 0.44
CC(=O)NC(C)(C)C(N)=NOCc1c(C)cc(C)cc1C | -13% | 1.71
Cc1nccc(NC(=O)N2Cc3cc(Br)ccc3C[C@@H]2C)n1 | 25% | -3.16
Cc1ccc(C(=O)NCc2ccco2)n1C | -14% | 1.81
COc1cc(C)c(-c2c(-c3ccccc3)ncn2Cc2ncc[nH]2)cc1C | -2% | 0.27
CN(Cc1ncc[nH]1)C(=O)c1coc(CN2CCc3ccccc3C2)n1 | 15% | -1.92
CCCNC(=O)CS(=O)(=O)Cc1cccc(Br)c1C | 40% | -5.73
Cc1nn(CC(=O)N[C@H](c2cnn(C)c2)C(C)(C)C)c2ncccc12 | -14% | 2.25
COc1ccc(-c2ccc(C)cc2-n2cccn2)nn1 | -16% | 1.93
Cc1c(CN(C)CCN(C)C2CCCC2)cnn1C | -25% | 2.18

SMILES | % Inhibition | Z score
CCOC(=O)c1[nH]c(C2CCN(Cc3nocc3C)CC2)nc1C | -15% | 2.3
COc1ccc(N2CCN(C(=O)CN3C(=O)CCn4nc(C)cc43)CC2)cc1 | -11% | 1.1
Cc1cnc(C(=O)N2CCC[C@H]2c2ccsc2)cn1 | -5% | 0.49
Cc1c(C(=O)N(C2CC2)[C@@H](C)C(=O)O)cccc1-c1ccccn1 | -3% | 0.37
COc1ccc2c(c1F)CC[C@@H]2NCc1ccc(CCN)cc1 | 10% | -0.91
COC1(c2nc(CCn3ccc4ccccc43)no2)CCC(C(F)F)CC1 (configuration not stated) | -10% | 1.17
O=C(NCc1ccccc1)N1CC[C@H](c2ccsc2)C1 | -21% | 2.46
Cc1nc(CN2CCC[C@H](Cn3cncn3)C2)oc1C | -7% | 1.04
O=C(Nc1ccc(N2CCN(C(=O)c3cccc(F)c3)CC2)nc1)C1CCCCC1 | 2% | -0.25
CN(C(=O)c1cc(C(C)(C)C)on1)[C@@H]1COC[C@H]1O | -8% | 1.49
O=C(Nc1nccn(-c2ccc(Br)cc2)c1=O)c1ccccn1 | 1% | -0.15
CC[C@@H](CC#N)NC(=O)CC1(CNC(=O)OC(C)(C)C)CC1 | -11% | 1.16
CC[C@H](C)NC(=O)CN1CN(c2ccccc2)C2(CCN(C(=O)Nc3cccc(Cl)c3Cl)CC2)C1=O | -10% | 1.84
COc1ccc(S(=O)(=O)NC[C@@](O)(c2ccccc2)C2CCOCC2)cc1C(N)=O | -7% | 1.3
O=C(COC(=O)c1ccccc1-c1nc2ccccc2s1)NCc1ccc2c(c1)OCO2 | -10% | 1.45
O=c1cc2c(nn1CC1CCN(c3ccc4nnc(C(F)(F)F)n4n3)CC1)CCC2 | -7% | 0.99
C[C@]1(CO)CCCN(c2ncc(S(=O)(=O)NCCO)cc2C(F)(F)F)C1 | -5% | 0.93
CCc1onc(C)c1NC(=O)[C@H]1CCc2[nH]nc(C(F)(F)F)c2C1 | -10% | 1.21
Cc1cc(NC(=O)CN(C)[C@H]2CCCN(Cc3noc(C)n3)C2)on1 | -9% | 0.98
O=C(Cc1cccc(F)c1)N1C[C@H]2CC[C@@H](C1)N(Cc1ccccc1)C2=O | -6% | 0.72
CCc1ccc(CS(=O)(=O)N2CCC[C@H](c3nc(C)cs3)C2)cc1 | 12% | -1.39
COC(=O)C(C)(C)NCC(=O)N[C@@H](C)C1CC1 | -9% | 1.15

SMILES | % Inhibition | Z score
CCCn1nccc1S(=O)(=O)N(C)C[C@H]1CCN(C)C1 | -7% | 1.09
Cn1cncc1CN1CCOc2ccccc2[C@@H]1C(=O)O | -6% | 0.87
O=C(c1ccc(COc2cc(Cl)ccc2Cl)o1)N1CCCCCC1 | -11% | 1.77
COCCn1cc(NC(=O)c2nc(C)n(-c3ccccc3Cl)n2)ccc1=O | -4% | 0.52
COC(=O)c1ccc(CN2CC[C@@H](N3CCC(Cc4ccccc4)CC3)CCC2=O)cc1 | -7% | 1.31
O=C(c1ccc2nccnc2c1)N1CCn2c(cnc2C(F)(F)F)C1 | 7% | -0.97
Cc1ncc(CNC(=O)Nc2cnn(CC(C)C)c2)s1 | -4% | 0.56
CC[C@H](C)Oc1c(Br)cc(C#N)cc1OC | 7% | -0.83
CC(C)Cn1ccnc1NC(=O)c1ccnn1C | -13% | 1.79
C[C@H](NC(=O)c1ccc2ccccc2n1)c1ccncc1 | 7% | -0.93
Cc1ccc2nc(-c3cncnc3)cc(C(=O)N(C)C3CCCCCC3)c2c1 | 10% | -1.41
CC(C)c1nc(C2CCCCCN2C(=O)C2C(C(=O)O)C2(C)C)no1 (configuration not stated) | -17% | 1.55
CCOCCC(=O)NCc1ccc(-c2ncon2)cc1 | -10% | 1.23
O=C(CN1CCCC2CCCCC21)N1CCCC(c2nc3ccccc3s2)C1 (configuration not stated) | 17% | -2
CN(C)C(=O)C1(CNC(=O)NCc2nccs2)CCCC1 | -3% | 0.44
CN(CC1(N2CCOCC2)CCCCC1)c1ccncn1 | 3% | -0.4
Cc1ccc(S(=O)(=O)CC(=O)c2ccc[nH]2)c(C)c1 | 25% | -2.87
CN1CCc2c(c3ccccc3n2CCC(N)=O)C1 | -10% | 0.96
O=C(NCC1CC1)[C@]1(F)CCCN(Cc2ccoc2)C1 | -17% | 1.46
Cc1ccc(C(=O)N2CCC3(CCC(=O)N(CC4CC4)C3)CC2)c(C)c1 | -17% | 1.58
